# Source: the supplement of paper PMC3334620
# In all, about 33,000 sequences were measured (“E-score (-0.5 to 0.5)”: median about -0.016, highest 2% from about 0.31 on). This is one part of the list.
# Target: Cst6 (UniProt P40535)
# Assay: PBM E-score (8-mer binding enrichment) (E-score (-0.5 to 0.5)); higher = stronger / more preferred TF binding; most listed sequences are background and not binding sites
# Details: protein concentration: 200 nM; construct: GST-DNA-binding domain
# In short: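 Universal all-10-mer Agilent arrays, fresh or stripped once, were converted to double-stranded form by primer extension. GST-tagged yeast transcription factors from PURExpress in vitro transcription/translation, full-length or DNA-binding domain only, were applied at about 100-200 nM and detected with fluorescent anti-GST. After masliner normalisation, the Universal PBM Analysis Suite scored each ungapped eight-base word together with its reverse complement by E-score.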
row,Sequence,PBM E-score
1,ACACTTGG,-0.0621
2,ATCGGCTC,0.0459
3,ACTTCGAG,0.123
4,CACTATTC,0.0942
5,AAGGATGA,0.0593
6,CATGCACG,0.0931
7,AAGTTCGG,-0.0277
8,CTGGACCA,-0.172
9,AAGAGATG,0.0322
10,TGTCAGAA,0.173
11,GCTACAAA,0.108
12,ACGTTGAA,0.152
13,ATGCAACC,0.043
14,CACGTGAG,-0.0105
15,GCCCGATA,-0.173
16,CCGCAAAG,0.00041
17,ACGGTTTC,-0.148
18,ACGTCTCA,0.141
19,GCACATAC,-0.148
20,CTGGTCGA,-0.343
21,GATAGTTA,0.107
22,AATTCGAA,0.059
23,CTAGCTCA,-0.205
24,CATGGATC,-0.125
25,AGTATGCC,-0.0681

row,Sequence,PBM E-score
1,AGGAGCAA,-0.131
2,GAGTGGAA,-0.224
3,AGGGCCAA,-0.298
4,ACGTCAGC,0.482
5,AGCCAATC,-0.211
6,GCTATGAC,0.332
7,CCGTCACG,0.176
8,TCCGAGCA,-0.103
9,ACCTAGCA,-0.128
10,CCAAAGGC,-0.126
11,AAGATATG,0.201
12,GAAGGCAA,0.0691
13,CGTAGTAA,0.16
14,AATCCAGG,-0.112
15,AATGCGAT,0.031
16,ACAGACGA,-0.0573
17,ACGAGTGG,-0.15
18,AGTGATTG,0.0756
19,CCGGTGGA,-0.277
20,ATTCTAGA,0.133
21,ACGTCGTA,0.158
22,GCAAGACA,-0.108
23,GTTAATAA,0.12
24,CTGTCGAC,-0.0944
25,CCACGGCG,0.309

row,Sequence,PBM E-score
1,TGGCCCAA,-0.0679
2,CCACTCTC,-0.196
3,CCGACCAA,-0.14
4,GGGCAGCA,-0.171
5,AGGCTCGA,0.0255
6,AGCCCATC,-0.126
7,ACGACACT,0.134
8,ACAGTCGC,-0.0759
9,CAGGCAAG,-0.113
10,CTGCAGCA,-0.0584
11,CGCCGCCC,0.024
12,CTTCAGTA,0.0381
13,TAAAACCA,0.0493
14,ATCTGCGC,-0.0927
15,ACGCGCTA,0.121
16,GCATGCAA,0.0268
17,CCAGGTCG,-0.233
18,AAGGTAGG,0.00569
19,GAGGAAAA,0.0455
20,CGATCATA,0.233
21,AACGGTCT,-0.2
22,AAACACTG,0.0471
23,CAGGTCAA,-0.146
24,GGACGCCC,-0.334
25,TGGTGAAA,0.189

row,Sequence,PBM E-score
1,CACGGATC,0.143
2,ACCTAAAT,0.051
3,CTAACTTA,0.136
4,GAACCAGC,-0.0063
5,ATAGTGTG,0.114
6,GCACCTGC,-0.114
7,GGTCAGGA,-0.182
8,GGATAGCA,0.0197
9,CTTCCTAC,-0.329
10,CTGTTAGA,-0.0218
11,GGGTCTAC,-0.0672
12,CACGGCAA,0.302
13,CACAGGGC,-0.0583
14,AACATCAG,0.183
15,TACGGAAA,0.052
16,CGTGCCCA,-0.0527
17,AAATGGTC,0.0662
18,TACCGACA,0.075
19,ATCTCAGC,-0.024
20,AAAGCCAT,0.171
21,CGCATTCC,-0.383
22,GTGAGTGA,-0.00703
23,ACCCTAAC,0.0817
24,AATGATAG,0.174
25,ATCGTTTG,0.101

row,Sequence,PBM E-score
1,GCCAAAGC,-0.235
2,GACTACAC,0.00552
3,ATCGCAGA,-0.0225
4,ACTAAGCG,-0.0685
5,AAAAAACG,0.212
6,AACCTCCC,-0.307
7,CGGTGATA,0.121
8,GGAATTTA,0.171
9,AAGCAACT,0.00639
10,CTATCGCC,-0.117
11,CAGATTCC,-0.155
12,CGCTAATC,-0.0707
13,CCGTTAGC,0.0137
14,ACCAATCT,0.0703
15,CTGATGAC,0.292
16,GCGGATGA,0.149
17,ATACAATA,0.235
18,ACCCTCGC,-0.131
19,CATGAGAG,0.0742
20,AGGCGTTG,0.101
21,ACACCTCC,-0.135
22,GTGGATCA,-0.212
23,GATGTCCA,0.138
24,TGAGTGAA,-0.122
25,GTAGGGCA,-0.0114

row,Sequence,PBM E-score
1,ATCCCTTG,-0.185
2,CAAGGAAG,-0.0668
3,GAGATACC,-0.024
4,ATCAGAAG,0.0706
5,AGGCAGCG,-0.188
6,CACCTCAC,0.0768
7,CTTGTATC,0.0546
8,GCCGGACC,-0.239
9,TACCGCGA,-0.0682
10,GTGAAAGA,0.181
11,AGTAGTTG,-0.0108
12,CTGACCTC,0.0456
13,AAATCGTG,0.22
14,GAAAGAGC,0.0402
15,CCCAAACG,-0.0804
16,ATGCACGG,0.026
17,CCCACGGC,0.187
18,GCAGGCCA,-0.174
19,GAATATGA,0.177
20,AGGGTCTA,-0.0972
21,CATTAGTC,-0.0559
22,ACCGTTGG,-0.3
23,ACATGAGG,0.0709
24,CTTTTACA,0.273
25,ATCCCACA,-0.17

row,Sequence,PBM E-score
1,ACGGGGTC,-0.288
2,ATTCAGCC,-0.0321
3,ACGGCGCA,0.349
4,CGAAAGAC,-0.0399
5,GGTGTAAC,0.106
6,CATGCGGA,-0.0527
7,CCAGGATA,-0.0745
8,AGTGCACC,-0.0537
9,ACACACAG,0.107
10,ACGTTATA,0.31
11,ATGATGAG,0.232
12,CGCACCCA,0.0312
13,CAGCACGC,-0.131
14,GTCTACTA,0.126
15,ACAACGGC,-0.0142
16,ACAACCCA,0.00152
17,AGTGCATC,0.00383
18,AAGGGAGG,-0.241
19,AAGGCGGA,-0.0675
20,CGTCGACG,-0.104
21,GTAGTTGA,0.105
22,GCACCTCA,0.077
